From PMC9402713, “Structural analysis of Red1 as a conserved scaffold of the RNA-targeting MTREC/PAXT complex” (Nature Communications, 2022)
These are yes or no findings as the source states them, for the method shown. For some assays here: Binding seen in cells or lysates may run through a third protein. Some results given as binding are weak or reduced against the parent protein; the word gives no strength. For some assays here: Tags and fused reporters may be left off the sequences shown.

T1: Red1-Myc13 (S. pombe) (UniProt Q9UTR8)
T1 sequence: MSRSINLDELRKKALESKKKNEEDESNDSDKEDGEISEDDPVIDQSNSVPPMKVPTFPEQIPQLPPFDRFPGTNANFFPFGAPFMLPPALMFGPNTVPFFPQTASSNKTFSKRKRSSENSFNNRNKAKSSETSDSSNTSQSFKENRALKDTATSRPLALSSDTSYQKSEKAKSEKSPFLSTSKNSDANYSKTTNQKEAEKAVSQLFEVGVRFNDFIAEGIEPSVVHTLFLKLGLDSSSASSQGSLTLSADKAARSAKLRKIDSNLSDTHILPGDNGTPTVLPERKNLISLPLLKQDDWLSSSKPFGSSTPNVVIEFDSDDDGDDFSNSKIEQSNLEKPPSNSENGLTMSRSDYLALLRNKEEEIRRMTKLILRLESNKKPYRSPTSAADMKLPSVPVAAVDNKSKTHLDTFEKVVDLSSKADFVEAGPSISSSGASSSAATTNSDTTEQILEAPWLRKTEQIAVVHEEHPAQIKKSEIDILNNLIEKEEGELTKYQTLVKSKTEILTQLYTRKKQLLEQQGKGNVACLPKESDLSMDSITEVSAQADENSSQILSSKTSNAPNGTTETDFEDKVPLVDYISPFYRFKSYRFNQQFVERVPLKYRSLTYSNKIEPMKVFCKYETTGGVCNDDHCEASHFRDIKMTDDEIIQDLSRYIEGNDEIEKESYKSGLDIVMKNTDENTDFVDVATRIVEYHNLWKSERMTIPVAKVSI

T2: Red1-TAP (S. pombe) (UniProt Q9UTR8)
T2 sequence: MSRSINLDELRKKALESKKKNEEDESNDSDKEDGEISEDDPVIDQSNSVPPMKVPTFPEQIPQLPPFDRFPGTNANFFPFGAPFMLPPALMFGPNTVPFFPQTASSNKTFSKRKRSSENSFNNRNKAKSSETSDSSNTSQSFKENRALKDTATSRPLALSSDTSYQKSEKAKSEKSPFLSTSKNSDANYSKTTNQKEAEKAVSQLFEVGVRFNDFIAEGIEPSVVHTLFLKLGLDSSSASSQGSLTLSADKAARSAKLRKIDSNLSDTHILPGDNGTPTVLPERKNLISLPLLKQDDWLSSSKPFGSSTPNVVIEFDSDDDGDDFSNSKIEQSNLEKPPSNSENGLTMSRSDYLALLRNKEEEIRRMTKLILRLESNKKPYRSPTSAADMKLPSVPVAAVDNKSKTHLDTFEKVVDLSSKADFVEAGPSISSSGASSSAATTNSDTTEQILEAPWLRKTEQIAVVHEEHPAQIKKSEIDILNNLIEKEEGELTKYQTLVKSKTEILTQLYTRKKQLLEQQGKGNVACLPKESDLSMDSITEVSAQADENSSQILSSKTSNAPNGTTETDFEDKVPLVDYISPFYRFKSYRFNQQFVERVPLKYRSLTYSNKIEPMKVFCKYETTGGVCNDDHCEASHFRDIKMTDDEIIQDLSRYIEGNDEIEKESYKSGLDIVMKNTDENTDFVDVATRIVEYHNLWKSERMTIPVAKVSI

T3: Red1, full length, yeast two-hybrid fusion (S. pombe) (UniProt Q9UTR8)
T3 sequence: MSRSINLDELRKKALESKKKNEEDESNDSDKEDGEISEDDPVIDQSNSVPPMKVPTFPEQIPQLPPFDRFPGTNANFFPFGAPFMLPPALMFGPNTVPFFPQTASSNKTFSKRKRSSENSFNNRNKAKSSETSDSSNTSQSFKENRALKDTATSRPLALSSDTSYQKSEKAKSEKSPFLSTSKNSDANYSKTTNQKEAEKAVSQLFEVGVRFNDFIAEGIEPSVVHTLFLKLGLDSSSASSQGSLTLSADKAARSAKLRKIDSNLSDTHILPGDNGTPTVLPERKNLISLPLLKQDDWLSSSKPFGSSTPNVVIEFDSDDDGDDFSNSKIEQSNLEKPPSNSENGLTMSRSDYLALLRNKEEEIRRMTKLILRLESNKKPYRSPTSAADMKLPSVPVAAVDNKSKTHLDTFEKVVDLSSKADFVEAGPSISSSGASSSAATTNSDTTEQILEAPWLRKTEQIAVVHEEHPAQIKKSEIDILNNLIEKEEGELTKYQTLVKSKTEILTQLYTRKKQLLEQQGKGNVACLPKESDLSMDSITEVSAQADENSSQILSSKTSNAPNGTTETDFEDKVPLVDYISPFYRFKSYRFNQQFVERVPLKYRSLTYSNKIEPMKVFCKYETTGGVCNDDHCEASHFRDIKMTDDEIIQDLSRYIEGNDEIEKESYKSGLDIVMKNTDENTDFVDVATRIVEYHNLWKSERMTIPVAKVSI

T4: Red1 L481R, I485R, full length, yeast two-hybrid fusion (S. pombe) (UniProt Q9UTR8)
T4 sequence: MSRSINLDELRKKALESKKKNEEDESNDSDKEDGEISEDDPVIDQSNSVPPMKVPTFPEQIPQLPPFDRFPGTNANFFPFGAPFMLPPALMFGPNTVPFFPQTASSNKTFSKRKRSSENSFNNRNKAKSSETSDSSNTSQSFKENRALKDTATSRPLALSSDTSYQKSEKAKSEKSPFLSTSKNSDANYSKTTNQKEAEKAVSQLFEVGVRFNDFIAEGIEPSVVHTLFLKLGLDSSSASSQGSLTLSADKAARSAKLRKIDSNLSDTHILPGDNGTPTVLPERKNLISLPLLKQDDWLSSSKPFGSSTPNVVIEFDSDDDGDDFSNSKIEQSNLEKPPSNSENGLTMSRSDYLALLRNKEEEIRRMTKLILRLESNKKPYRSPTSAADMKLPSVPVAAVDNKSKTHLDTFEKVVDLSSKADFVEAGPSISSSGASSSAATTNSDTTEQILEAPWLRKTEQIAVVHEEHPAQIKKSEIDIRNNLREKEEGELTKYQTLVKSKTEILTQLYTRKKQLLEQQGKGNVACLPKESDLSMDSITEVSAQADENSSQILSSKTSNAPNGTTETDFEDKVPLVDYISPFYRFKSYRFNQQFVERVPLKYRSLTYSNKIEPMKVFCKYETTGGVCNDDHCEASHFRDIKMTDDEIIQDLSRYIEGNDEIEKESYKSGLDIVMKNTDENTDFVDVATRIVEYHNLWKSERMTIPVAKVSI


How the values were obtained:
[1] = molecular target: T1, Red1-Myc13 (S. pombe); assay: co-IP; soluble extracts of S. pombe co-expressing Red1-Myc13 and Red1-HA3 forms; anti-Myc 9E10 and Protein-G Dynabeads; western blot with anti-HA
[2] = molecular target: T2, Red1-TAP (S. pombe); assay: co-IP; soluble extracts of S. pombe grown in minimal medium; Red1-TAP held on IgG Sepharose, 2 h at 4 °C, 150 mM NaCl, 0.2% NP-40; western blot
[3] = molecular target: T3, Red1, full length, yeast two-hybrid fusion (S. pombe); assay: two-hybrid; Gal4 system (pDEST32 bait, pDEST22 prey) in yeast MaV203; HIS3 reporter, growth without histidine with 5-50 mM 3AT, 30 °C
[4] = molecular target: Red1 390-712, yeast two-hybrid fusion (S. pombe) (UniProt Q9UTR8); assay: as above
[5] = molecular target: T4, Red1 L481R, I485R, full length, yeast two-hybrid fusion (S. pombe); assay: as above

| Binder | binding [1] | binding [2] | binding [3] | other results |
| --- | --- | --- | --- | --- |
| Red1-HA3 (protein, UniProt Q9UTR8 1-712) MSRSINLDELRKKALESKKKNEEDESNDSDKEDGEISEDDPVIDQSNSVPPMKVPTFPEQIPQLPPFDRFPGTNANFFPFGAPFMLPPALMFGPNTVPFFPQTASSNKTFSKRKRSSENSFNNRNKAKSSETSDSSNTSQSFKENRALKDTATSRPLALSSDTSYQKSEKAKSEKSPFLSTSKNSDANYSKTTNQKEAEKAVSQLFEVGVRFNDFIAEGIEPSVVHTLFLKLGLDSSSASSQGSLTLSADKAARSAKLRKIDSNLSDTHILPGDNGTPTVLPERKNLISLPLLKQDDWLSSSKPFGSSTPNVVIEFDSDDDGDDFSNSKIEQSNLEKPPSNSENGLTMSRSDYLALLRNKEEEIRRMTKLILRLESNKKPYRSPTSAADMKLPSVPVAAVDNKSKTHLDTFEKVVDLSSKADFVEAGPSISSSGASSSAATTNSDTTEQILEAPWLRKTEQIAVVHEEHPAQIKKSEIDILNNLIEKEEGELTKYQTLVKSKTEILTQLYTRKKQLLEQQGKGNVACLPKESDLSMDSITEVSAQADENSSQILSSKTSNAPNGTTETDFEDKVPLVDYISPFYRFKSYRFNQQFVERVPLKYRSLTYSNKIEPMKVFCKYETTGGVCNDDHCEASHFRDIKMTDDEIIQDLSRYIEGNDEIEKESYKSGLDIVMKNTDENTDFVDVATRIVEYHNLWKSERMTIPVAKVSI | binds | binds |  |  |
| Red1-∆CC-HA3 (protein, UniProt Q9UTR8) MSRSINLDELRKKALESKKKNEEDESNDSDKEDGEISEDDPVIDQSNSVPPMKVPTFPEQIPQLPPFDRFPGTNANFFPFGAPFMLPPALMFGPNTVPFFPQTASSNKTFSKRKRSSENSFNNRNKAKSSETSDSSNTSQSFKENRALKDTATSRPLALSSDTSYQKSEKAKSEKSPFLSTSKNSDANYSKTTNQKEAEKAVSQLFEVGVRFNDFIAEGIEPSVVHTLFLKLGLDSSSASSQGSLTLSADKAARSAKLRKIDSNLSDTHILPGDNGTPTVLPERKNLISLPLLKQDDWLSSSKPFGSSTPNVVIEFDSDDDGDDFSNSKIEQSNLEKPPSNSENGLTMSRSDYLALLRNKEEEIRRMTKLILRLESNKKPYRSPTSAADMKLPSVPVAAVDNKSKTHLDTFEKVVDLSSKADFVEAGPSISSSGASSSAATTNSDTTEQILVACLPKESDLSMDSITEVSAQADENSSQILSSKTSNAPNGTTETDFEDKVPLVDYISPFYRFKSYRFNQQFVERVPLKYRSLTYSNKIEPMKVFCKYETTGGVCNDDHCEASHFRDIKMTDDEIIQDLSRYIEGNDEIEKESYKSGLDIVMKNTDENTDFVDVATRIVEYHNLWKSERMTIPVAKVSI | binds | binds |  |  |
| Red1, full length, yeast two-hybrid fusion (protein, UniProt Q9UTR8 1-712) MSRSINLDELRKKALESKKKNEEDESNDSDKEDGEISEDDPVIDQSNSVPPMKVPTFPEQIPQLPPFDRFPGTNANFFPFGAPFMLPPALMFGPNTVPFFPQTASSNKTFSKRKRSSENSFNNRNKAKSSETSDSSNTSQSFKENRALKDTATSRPLALSSDTSYQKSEKAKSEKSPFLSTSKNSDANYSKTTNQKEAEKAVSQLFEVGVRFNDFIAEGIEPSVVHTLFLKLGLDSSSASSQGSLTLSADKAARSAKLRKIDSNLSDTHILPGDNGTPTVLPERKNLISLPLLKQDDWLSSSKPFGSSTPNVVIEFDSDDDGDDFSNSKIEQSNLEKPPSNSENGLTMSRSDYLALLRNKEEEIRRMTKLILRLESNKKPYRSPTSAADMKLPSVPVAAVDNKSKTHLDTFEKVVDLSSKADFVEAGPSISSSGASSSAATTNSDTTEQILEAPWLRKTEQIAVVHEEHPAQIKKSEIDILNNLIEKEEGELTKYQTLVKSKTEILTQLYTRKKQLLEQQGKGNVACLPKESDLSMDSITEVSAQADENSSQILSSKTSNAPNGTTETDFEDKVPLVDYISPFYRFKSYRFNQQFVERVPLKYRSLTYSNKIEPMKVFCKYETTGGVCNDDHCEASHFRDIKMTDDEIIQDLSRYIEGNDEIEKESYKSGLDIVMKNTDENTDFVDVATRIVEYHNLWKSERMTIPVAKVSI |  |  | binds |  |
| Red1 390-712, yeast two-hybrid fusion (domain or fragment, UniProt Q9UTR8 390-712) MKLPSVPVAAVDNKSKTHLDTFEKVVDLSSKADFVEAGPSISSSGASSSAATTNSDTTEQILEAPWLRKTEQIAVVHEEHPAQIKKSEIDILNNLIEKEEGELTKYQTLVKSKTEILTQLYTRKKQLLEQQGKGNVACLPKESDLSMDSITEVSAQADENSSQILSSKTSNAPNGTTETDFEDKVPLVDYISPFYRFKSYRFNQQFVERVPLKYRSLTYSNKIEPMKVFCKYETTGGVCNDDHCEASHFRDIKMTDDEIIQDLSRYIEGNDEIEKESYKSGLDIVMKNTDENTDFVDVATRIVEYHNLWKSERMTIPVAKVSI |  |  | binds | binding [4]: binds |
| Red1 L481R, I485R, full length, yeast two-hybrid fusion (protein, UniProt Q9UTR8 1-712) MSRSINLDELRKKALESKKKNEEDESNDSDKEDGEISEDDPVIDQSNSVPPMKVPTFPEQIPQLPPFDRFPGTNANFFPFGAPFMLPPALMFGPNTVPFFPQTASSNKTFSKRKRSSENSFNNRNKAKSSETSDSSNTSQSFKENRALKDTATSRPLALSSDTSYQKSEKAKSEKSPFLSTSKNSDANYSKTTNQKEAEKAVSQLFEVGVRFNDFIAEGIEPSVVHTLFLKLGLDSSSASSQGSLTLSADKAARSAKLRKIDSNLSDTHILPGDNGTPTVLPERKNLISLPLLKQDDWLSSSKPFGSSTPNVVIEFDSDDDGDDFSNSKIEQSNLEKPPSNSENGLTMSRSDYLALLRNKEEEIRRMTKLILRLESNKKPYRSPTSAADMKLPSVPVAAVDNKSKTHLDTFEKVVDLSSKADFVEAGPSISSSGASSSAATTNSDTTEQILEAPWLRKTEQIAVVHEEHPAQIKKSEIDIRNNLREKEEGELTKYQTLVKSKTEILTQLYTRKKQLLEQQGKGNVACLPKESDLSMDSITEVSAQADENSSQILSSKTSNAPNGTTETDFEDKVPLVDYISPFYRFKSYRFNQQFVERVPLKYRSLTYSNKIEPMKVFCKYETTGGVCNDDHCEASHFRDIKMTDDEIIQDLSRYIEGNDEIEKESYKSGLDIVMKNTDENTDFVDVATRIVEYHNLWKSERMTIPVAKVSI |  |  |  | binding [5]: no binding |
